PubChem BioAssay AID1745845 (National Center for Advancing Translational Sciences (NCATS), 2022)
About 2,600 (0.72%) of roughly 360,000 compounds were called active. The inconclusive results got no clear call from the source; some entries with a clear call stand among them for comparison. Calls follow the shape of the dose curve; as a rule, active = well fitted inhibition curve with a large enough effect; inconclusive = small, poorly fitted or top-dose-only effect; inactive = no such curve, though single readings can be large or run the other way. A potency beside an inconclusive call is a rough fit, not a confirmed value.
% is scaled to controls: 0 for no effect and ±100 for the full control effect; potency is read from the fitted curve at half-maximal effect; tags tell the direction and shape of the fitted curve.

Test: Primary qHTS for Inhibitors of ATXN expression; also: nearly all actives have a fitted effect of over 55% in size
Settings: HEK-293 ATXN2-luciferase reporter, luminescence, 24 h; activity change, negative = inhibition: at 57 µM (top of the series)
Outline: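 qHTS (up to 57 uM final) was run with 24 h compound exposure of reporter cells at 37 °C. Each well was multiplexed: SteadyGlo luminescence measured ATXN2-luciferase expression after a fluorogenic Gly-Phe-AFC viability readout (25 uM final).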
In the case of `Cn1c2ccccc2c(=O)c2cc(C#CC3(O)CCCCC3)ccc21`, the Potency is reported as inconclusive: 39.8 µM [inhibitor, single point]. For `Cc1ccc(OCCCCN2CCCCC2)c(C)c1`, the “activity change, negative = inhibition” value was inactive: -1.06%. For `COc1cccc(NC(=O)Nc2cccn(Cc3ccccc3)c2=O)c1`, the “activity change, negative = inhibition” value was inactive: 13.7%. For `Nc1ccc(-c2cnc(N)c(C(=O)c3cccnc3)n2)cn1`, the Potency was inconclusive: 22.4 µM [inhibitor, single point]. With `Cc1cc(SCC(=O)Nc2ccc(O)cc2)n2nc(C)c(-c3ccccc3)c2n1` the Potency was inconclusive: 39.8 µM [inhibitor, partial curve, poor fit]. For `CNc1ccccc(C(=O)/C=C/c2ccccc2OC)c1=O`, the Potency was inconclusive: 28.2 µM [inhibitor, single point]. With `O=C(C[C@H]1C[C@H](C(=O)N2CCCCC2)[C@@]2(CCc3ccccc3)c3[nH]c4ccc(Cl)cc4c3CCN2C1=O)NCCc1ccccn1` the “activity change, negative = inhibition” value was inactive: 3.04%. For `Cc1nc2cc(NC(=O)Nc3ccccc3Cl)ccc2n1C`, the Potency was inconclusive: 13.4 µM [inhibitor, single point]. With `Cc1nnc(SC(C)C(=O)Nc2ccc(Cl)cn2)n1Cc1ccccc1` (stereo not drawn) the Potency was inconclusive: 35.5 µM [inhibitor, single point]. With `FC(F)(F)c1cc(-c2ccco2)nc(-n2cnc3ccccc32)n1` the Potency was inconclusive: 35.5 µM [inhibitor, partial curve, poor fit]. For `O=C(CCC(=O)Nc1ccc(Br)cc1)N/N=C/c1cc([N+](=O)[O-])ccc1O`, the Potency was inconclusive: 39.8 µM [inhibitor, single point]. With `CCNCC(=O)N1c2ccccc2CCc2ccc(NC(=O)OC(C)C)cc21` the “activity change, negative = inhibition” value was inactive: -11.9%. For `CCc1ccc(-c2nc(CN3CCC(C(=O)NCc4ccco4)CC3)c(C)o2)cc1`, the “activity change, negative = inhibition” value was inactive: 9.08%. In the case of `O=C(NNC(=O)c1ccccn1)c1cccc([N+](=O)[O-])c1`, the Potency is reported as inconclusive: 33.6 µM [inhibitor, single point]. For `OCCN(CCCn1c(C(F)(F)F)nc2ccccc21)c1nc(CN2CCCCC2)cs1`, the “activity change, negative = inhibition” value was inactive: 8.03%. With `CN(C)c1ccc(C=c2c3ccccc3n3c2c2c([n+]3C)CCCC2)cc1` the Potency was active: 8.91 µM. For `CCOc1ccc(CN(C)C(=O)c2ccc(S(=O)(=O)N(C)c3ccccc3OC)cc2)cc1`, the Potency was inconclusive: 22.4 µM [inhibitor, partial curve, poor fit]. For `O=C(N/N=C/c1ccc(-c2cccc(C(F)(F)F)c2)o1)c1cccc(F)c1`, the Potency was inconclusive: 14.1 µM [inhibitor, partial curve, poor fit]. For `COc1ccc(-c2csc(NC(=S)NC(=O)/C=C/c3ccco3)n2)cc1Br`, the Potency was inconclusive: 39.8 µM [inhibitor, single point]. For `CCc1c(C)nc2c(-c3ccccc3)c(C)nn2c1Nc1ccc(NC(C)=O)cc1`, the Potency was inconclusive: 39.8 µM [inhibitor, single point]. For `O=C1OCCN1C(=O)[C@H]1[C@H](c2ccccc2)C(c2cccc(Cl)c2)=NN1c1ccc(Br)cc1`, the “activity change, negative = inhibition” value was inactive: -1.07%. In the case of `Cc1nc2n(COCCO)cnn2c(=O)c1Br`, the “activity change, negative = inhibition” value is reported as inactive: -5.28%. With `CCc1cc(SC#N)cc(C)c1NC(=O)CCl` the Potency was inconclusive: 39.8 µM [inhibitor, single point]. With `NC(Cc1ccc(C(F)(F)F)cc1)c1csc(Nc2ccc(C(=O)NCc3ccco3)cn2)n1` (stereo not drawn) the Potency was active: 12.6 µM. For `O=C(c1c[nH]c(C(=O)C(Cl)(Cl)Cl)c1)c1ccc(F)cc1Cl`, the activity change, negative = inhibition was inactive: -17.7% [at 11.3 µM]. In the case of `CCOC(=O)C1C(C(=O)OC)=C(C2=CCCCC2)c2ccccc2N1S(=O)(=O)C(F)(F)F` (stereo not drawn), the Potency is reported as inconclusive: 28.2 µM [inhibitor, partial curve, poor fit]. In the case of `Cc1ccc(S(=O)(=O)N(CC(O)Cn2c3ccccc3c3ccccc32)c2cccc(C(=O)NCCO)c2)cc1` (stereo not drawn), the Potency is reported as inconclusive: 25.1 µM [inhibitor, single point]. For `COc1cc(NCCCCCCN)c2ncccc2c1OC`, the Potency was active: 15.8 µM. In the case of `Cn1c(=O)c2c(nc(Cl)n2Cc2ccc(Cl)c(Cl)c2)n(C)c1=O`, the Potency is reported as inconclusive: 11.2 µM [inhibitor, partial curve, poor fit]. In the case of `Cn1nc(-c2ccccc2F)c2cc(C(=O)N3CCN(c4ccccc4F)CC3)sc21`, the Potency is reported as inconclusive: 39.8 µM [inhibitor, partial curve, poor fit]. For `CCOc1cc(CNc2ccc(O)cc2)cc(Cl)c1OCc1ccccc1`, the Potency was active: 31.6 µM. In the case of `CCCCn1c(N)c(N(CC(C)C)C(=O)CSc2nnc(-c3ccc(Cl)cc3)o2)c(=O)[nH]c1=O`, the “activity change, negative = inhibition” value is reported as inactive: 0.574%. In the case of `CC(C)NC[C@@H](C(=O)N1CCN(c2ncnc3c2[C@H](C)C[C@H]3O)CC1)c1ccc(Cl)cc1`, the Potency is reported as active: 19.3 µM. For `O=C(CSc1ccc2c(c1)OCCO2)Nc1ccc(Br)cn1`, the Potency was inconclusive: 22.4 µM [inhibitor, single point]. In the case of `COc1ccc(C(=O)/C=C/C(=O)N(CC(=O)NC2CCCCC2)Cc2ccc(F)cc2)c(O)c1`, the Potency is reported as inconclusive: 22.4 µM [inhibitor, partial curve, poor fit]. With `CC(C)N(Cc1ccccc1)C(=S)Nc1cccnc1` the “activity change, negative = inhibition” value was inactive: -1.73%. For `CN(C)CCC(=O)N1C/C(=C/c2ccccc2)C(=O)/C(=C\c2ccccc2)C1`, the Potency was active: 2.12 µM. With `COc1cccc(C(c2nnnn2-c2c(C)cccc2C)N2CCN(C/C=C/c3ccccc3)CC2)c1OC` (stereo not drawn) the “activity change, negative = inhibition” value was inactive: -13.3%. In the case of `C/C(=N\NC(=O)c1c(Cl)c(C)nn1C)c1ccc(NC(=O)COc2ccc(Cl)cc2C)cc1`, the Potency is reported as inconclusive: 28.2 µM [inhibitor, single point]. With `COc1ccccc1CNC(=O)c1ccc(Cn2c(SCc3ccccc3)nc3cccnc32)cc1` the “activity change, negative = inhibition” value was inactive: -31.7%. For `CC(C)C1C(=O)N(Cc2cn(CC3CCCCC3)nn2)CCS(=O)(=O)N1Cc1ccc(-c2ccc(Cl)cc2)cc1` (stereo not drawn), the Potency was inconclusive: 39.8 µM [inhibitor, partial curve, poor fit]. In the case of `CCCC[C@@H]1CNC(=S)N1CCCC`, the Potency is reported as inconclusive: 39.8 µM [inhibitor, single point]. For `N#Cc1ccc(COC(=O)c2cc(=O)c3ccccc3o2)cc1`, the Potency was inconclusive: 37.7 µM [inhibitor, single point].
